Assay results reported in the supplement of paper PMC4604168 (melanoma cell lines).
Some of the results follow. Repeats are few or missing, and single values can be far off.

How the values were obtained:
Experiment in all cases: cell count relative to DMSO control; melanoma cells; higher = more viable cells
Details in all cases: library dose: standard library concentration; 72 h
SkMel28 = test system: SkMel28
SkMel2 = test system: SkMel2
SkMel30 = test system: SkMel30
SkMel5 = test system: SkMel5
UACC257 = test system: UACC257
UACC62 = test system: UACC62
WM115 = test system: WM115
WM1716 = test system: WM1716
WM1745 = test system: WM1745
WM3526 = test system: WM3526
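Note: cells treated in 1,536-well plates, then fixed and DAPI-stained, with nuclei counted from automated high-throughput microscope images.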

| SMILES | cell count (SkMel28) [%] | cell count (SkMel2) [%] | cell count (SkMel30) [%] | cell count (SkMel5) [%] | cell count (UACC257) [%] | cell count (UACC62) [%] | cell count (WM115) [%] | cell count (WM1716) [%] | cell count (WM1745) [%] | cell count (WM3526) [%] |
| --- | --- | --- | --- | --- | --- | --- | --- | --- | --- | --- |
| CC(C)C[C@H](NC(=O)[C@H](Cc1ccccc1)NC(=O)c1cnccn1)B(O)O [Bortezomib] + Nc1ccn([C@@H]2O[C@H](CO)[C@@H](O)C2(F)F)c(=O)n1 [gemcitabine] (first compound 0.005 µM, partner dose 0.002 µM) | 22.9 | 71.4 | 29.8 | 32.4 | 77.3 | 64.1 | 26.8 | 13.6 | 20.3 | 22.4 |
| Cc1cn(-c2cc(NC(=O)c3ccc(C)c(Nc4nccc(-c5cccnc5)n4)c3)cc(C(F)(F)F)c2)cn1 [nilotinib] + C[C@@H]1CCN(C(=O)CC#N)C[C@@H]1N(C)c1ncnc2[nH]ccc12 [CP690550] (first compound 1 µM, partner dose 5 µM) | 116 | 76.3 | 106 | 68 | 130 | 97.3 | 95 | 106 | 79.2 | 92.5 |
| Cc1cn(-c2cc(NC(=O)c3ccc(C)c(Nc4nccc(-c5cccnc5)n4)c3)cc(C(F)(F)F)c2)cn1 [nilotinib] + CS(=O)(=O)c1ccc(C(=O)Nc2ccc(Cl)c(-c3ccccn3)c2)c(Cl)c1 [vismodegib] (first compound 1 µM, partner dose 5 µM) | 88 | 85.6 | 84.2 | 82.9 | 121 | 93.1 | 116 | 107 | 95.1 | 90 |
| Cn1c(=O)n(-c2ccc(C(C)(C)C#N)cc2)c2c3cc(-c4cnc5ccccc5c4)ccc3ncc21 + C=CCn1c(=O)c2cnc(Nc3ccc(N4CCN(C)CC4)cc3)nc2n1-c1cccc(C(C)(C)O)n1 [MK1775] (first compound 0.02 µM, partner dose 0.1 µM) | 21.8 | 54.1 | 66.8 | 40.3 | 88.6 | 63.7 | 50.1 | 72.1 | 46.7 | 52.5 |
| Cc1cn(-c2cc(NC(=O)c3ccc(C)c(Nc4nccc(-c5cccnc5)n4)c3)cc(C(F)(F)F)c2)cn1 [nilotinib] + CCCS(=O)(=O)Nc1ccc(F)c(C(=O)c2c[nH]c3ncc(Cl)cc23)c1F [PLX4720] (first compound 1 µM, partner dose 0.4 µM) | 56.9 | 117 | 95.7 | 70.5 | 120 | 46.8 | 70.6 | 101 | 76.8 | 68.5 |
| Cc1cc(Nc2cc(N3CCN(C)CC3)nc(/C=C/c3ccccc3)n2)n[nH]1 + Nc1cccc2c1CN(C1CCC(=O)NC1=O)C2=O [lenalidomide] (first compound 0.2 µM, partner dose 5 µM) | 59 | 99.5 | 98 | 73.9 | 97.1 | 80.6 | 68.3 | 92.9 | 64 | 93.8 |
| Cc1cc(Nc2cc(N3CCN(C)CC3)nc(/C=C/c3ccccc3)n2)n[nH]1 + O=C(O)[C@@H]1[O][Sb](=[O])([O][Sb]2(=[O])[O][C@H]([C@H](O)CO)[C@H](O)[C@H](C(=O)O)[O]2)[O][C@H]([C@H](O)CO)[C@@H]1O [stibogluconate] (first compound 0.2 µM, partner dose 10 µM) | 70.4 | 98.2 | 103 | 74.2 | 103 | 74.4 | 56.7 | 100 | 64.3 | 72.8 |
| CC(C)C[C@H](NC(=O)[C@H](Cc1ccccc1)NC(=O)c1cnccn1)B(O)O [Bortezomib] + COCC[n+]1c2c(n(Cc3cnccn3)c1C)C(=O)c1ccccc1C2=O [YM155] (first compound 0.005 µM, partner dose 0.002 µM) | 19.6 | 20.3 | 24.1 | 20.4 | 30.4 | 47.5 | 25.2 | 14 | 30.1 | 20.4 |
| Cc1cc(Nc2cc(N3CCN(C)CC3)nc(/C=C/c3ccccc3)n2)n[nH]1 + O=C(Nc1cccc(Cl)c1)Nc1ncc(CCNc2ncnc3ccsc23)s1 [SNS314] (first compound 0.2 µM, partner dose 0.004 µM) | 28.5 | 91.3 | 107 | 94 | 65.5 | 80.2 | 33.5 | 51 | 57.1 | 77.7 |
| Cc1cn(-c2cc(NC(=O)c3ccc(C)c(Nc4nccc(-c5cccnc5)n4)c3)cc(C(F)(F)F)c2)cn1 [nilotinib] + Cn1cnc2c(F)c(Nc3ccc(Br)cc3Cl)c(C(=O)NOCCO)cc21 [selumetinib] (first compound 1 µM, partner dose 0.075 µM) | 38.4 | 22.8 | 54.4 | 57.4 | 97.7 | 56.9 | 62.1 | 95.6 | 58.6 | 48.8 |
| CC(C)C[C@H](NC(=O)[C@H](Cc1ccccc1)NC(=O)c1cnccn1)B(O)O [Bortezomib] + C=CCNC1=C2C[C@@H](C)C[C@H](OC)[C@H](O)[C@@H](C)/C=C(\C)[C@H](OC(N)=O)[C@@H](OC)/C=C\C=C(/C)C(=O)NC(=CC1=O)C2=O [Tanespimycin] (first compound 0.005 µM, partner dose 0.01 µM) | 19.2 | 46.8 | 27.6 | 31.2 | 63.2 | 73.5 | 25.3 | 18.7 | 14.6 | 23.4 |
| Cc1cn(-c2cc(NC(=O)c3ccc(C)c(Nc4nccc(-c5cccnc5)n4)c3)cc(C(F)(F)F)c2)cn1 [nilotinib] + CS(=O)(=O)CCNCc1ccc(-c2ccc3ncnc(Nc4ccc(OCc5cccc(F)c5)c(Cl)c4)c3c2)o1 [lapatinib] (first compound 1 µM, partner dose 4 µM) | 64.8 | 91.5 | 57 | 51.1 | 87.6 | 21.4 | 80.7 | 74.2 | 68.5 | 71.9 |
| Cc1cn(-c2cc(NC(=O)c3ccc(C)c(Nc4nccc(-c5cccnc5)n4)c3)cc(C(F)(F)F)c2)cn1 [nilotinib] + NC1(c2ccc(-c3nc4ccn5c(=O)[nH]nc5c4cc3-c3ccccc3)cc2)CCC1 [MK2206] (first compound 1 µM, partner dose 2 µM) | 49.1 | 67.9 | 88.6 | 64 | 106 | 47.6 | 45.7 | 81.2 | 101 | 63.3 |
| Cc1cn(-c2cc(NC(=O)c3ccc(C)c(Nc4nccc(-c5cccnc5)n4)c3)cc(C(F)(F)F)c2)cn1 [nilotinib] + Clc1ccc(Nc2nnc(Cc3ccncc3)c3ccccc23)cc1 [vatalanib] (first compound 1 µM, partner dose 10 µM) | 76.3 | 81.4 | 71.2 | 52.1 | 77.3 | 72.1 | 82.4 | 91.6 | 60.2 | 70.2 |
| COc1ccc(C2=N[C@@H](c3ccc(Cl)cc3)[C@@H](c3ccc(Cl)cc3)N2C(=O)N2CCNC(=O)C2)c(OC(C)C)c1 [Nutlin-3] + Clc1ccc(Nc2nnc(Cc3ccncc3)c3ccccc23)cc1 [vatalanib] (first compound 0.5 µM, partner dose 10 µM) | 44.8 | 67.1 | 65.1 | 62.5 | 62.6 | 62.6 | 74.8 | 65.7 | 69.8 | 70.9 |
| CC(C)C[C@H](NC(=O)[C@H](Cc1ccccc1)NC(=O)c1cnccn1)B(O)O [Bortezomib] + O=C(O)[C@@H]1[O][Sb](=[O])([O][Sb]2(=[O])[O][C@H]([C@H](O)CO)[C@H](O)[C@H](C(=O)O)[O]2)[O][C@H]([C@H](O)CO)[C@@H]1O [stibogluconate] (first compound 0.005 µM, partner dose 10 µM) | 26.6 | 36.9 | 17.9 | 26.7 | 78.7 | 39.7 | 20.9 | 18.4 | 19.6 | 16.9 |
| Cn1c(=O)n(-c2ccc(C(C)(C)C#N)cc2)c2c3cc(-c4cnc5ccccc5c4)ccc3ncc21 + C[C@@H](Oc1cc(-c2cnn(C3CCNCC3)c2)cnc1N)c1c(Cl)ccc(F)c1Cl [Crizotinib] (first compound 0.02 µM, partner dose 1 µM) | 36.7 | 74.3 | 77.4 | 60.5 | 91.8 | 87.8 | 56.7 | 66 | 65.8 | 72 |
| Cc1cn(-c2cc(NC(=O)c3ccc(C)c(Nc4nccc(-c5cccnc5)n4)c3)cc(C(F)(F)F)c2)cn1 [nilotinib] + OCCn1cc(-c2cnc3nnn(Cc4ccc5ncccc5c4)c3n2)cn1 [PF04217903] (first compound 1 µM, partner dose 5 µM) | 97.3 | 90.5 | 89.6 | 78.6 | 111 | 89.5 | 74.3 | 87.5 | 119 | 88.1 |
| Cc1cc(Nc2cc(N3CCN(C)CC3)nc(/C=C/c3ccccc3)n2)n[nH]1 + NC(=O)Nc1cc(-c2cccc(F)c2)sc1C(=O)N[C@H]1CCCNC1 [AZD7762] (first compound 0.2 µM, partner dose 0.1 µM) | 44.7 | 71.3 | 85.5 | 66.8 | 107 | 65.4 | 50.4 | 60.2 | 61.1 | 40.5 |
| CC(C)C[C@H](NC(=O)[C@H](Cc1ccccc1)NC(=O)c1cnccn1)B(O)O [Bortezomib] + CN1CCN(c2ccc3nc(-c4c(N)c5c(F)cccc5[nH]c4=O)[nH]c3c2)CC1 [Dovitinib] (first compound 0.005 µM, partner dose 0.5 µM) | 19.5 | 39.1 | 19.3 | 20.6 | 52.9 | 40.7 | 19.1 | 23.9 | 28.1 | 16.9 |
| COc1ccc(C2=N[C@@H](c3ccc(Cl)cc3)[C@@H](c3ccc(Cl)cc3)N2C(=O)N2CCNC(=O)C2)c(OC(C)C)c1 [Nutlin-3] + OCc1c[nH]c2ccccc12 [Indole-3-carbinol] (first compound 0.5 µM, partner dose 4 µM) | 62.7 | 127 | 104 | 81 | 83.3 | 78.7 | 90.7 | 70.6 | 100 | 141 |
